# Reference: the supplement of paper PMC11417369
# Some of the results follow.
# Test system: PfSIP2 AP2 domain 1 (GST-tagged)
# Experiment: gcPBM binding intensity (ln(normalized median fluorescence intensity)); higher = stronger DNA binding
# Method in brief: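 Plasmodium falciparum DNA-binding domains carrying a GST tag were expressed in E. coli and applied for 1 h, at about 25 μg on average, to an Agilent 4 × 180k array. The array held primer-extended double-stranded 36-bp intergenic genomic probes together with negative controls, and binding took place in 1× PBS with 1% milk, 0.2 mg/ml BSA, 0.5% salmon testes DNA and 0.03% Triton X-100. An Alexa488 anti-GST antibody detected bound protein, and the array was scanned at 488 nm. Binding intensity is taken as the highest Masliner-normalised natural-log median intensity across replicate spots of either probe orientation.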
row,Sequence,gcPBM binding intensity (ln)
1,GTTGGTAGATTTATTTGTACATATGTATCATATTAT [XGTACX_site7135],7.23
2,AAAAATTTATTTTGTTTTTTAAGATTTTTTTTTTTT [CACACA_negctrl_site1210],6.73
3,ACATACATATATATACGTACATATATATTTATATAT [XGTACX_site5799],7.56
4,ATTCTAAATATCAGTGCACACATTTCTACGCAAAGT [CACACA_site474],9.9
5,AGCAAATACAAACACACACACACATATACATATATA [CACACA_site3497],7.2
6,TAATTACAAAAACATACACACAAAAAAAAAAAAAAA [CACACA_site3782],6.96
7,ATCTTATATATACGTTGTACTACAGGATATGTCATA [XGTACX_site5734],7.13
8,TTCATTTACCCTTATTAACACACAAAATATAATACG [CACACA_site8821],7.33
9,TGTATATTATAAGATAGTACATATATATAATATATA [XGTACX_site1297],7.09
10,ATAAATATCATATATATACACACGTAATACATAATA [CACACA_site4001],7.13
11,AAGGAGATAATTTATTGTACATATAATAAATGAACA [XGTACX_site6252],7.09
12,TCTTACAAAAAAAAAAAAAAATAAAATAAAATATAT [CACACA_negctrl_site1575],6.7
13,TTAATATTATGTTAAAGTACTTTATATATATATAAT [XGTACX_site2646],7.05
14,ATATTAAGAATATATACACACATAAGTATTGTATAT [CACACA_site6110],6.83
15,TATTCGTGCAATAGTAGTACACTTATAAATTATTCT [XGTACX_site4899],7.69
16,ATAAAATAAAATAAATGTACACGAAAAAAAATATTT [XGTACX_site3747],7.25
17,TTACTTGTTTATTTTATTTTTTTTTTTTTTTTGTTA [TGCATGCA_negctrl_site266],6.78
18,AGTGAGAAATACATAATAATACATTATGTGCATATT [XGTACX_negctrl_site247],7.23
19,GTACACATATATATATATATATATATATATATATTA [CACACA_negctrl_site1580],7.86
20,AAGAATATTTTTTTCTGTACATATAATTTATATACG [XGTACX_site5801],6.93
21,AACGAAAGAAAAAAAGCACACACAGTTTTGAGCAAT [CACACA_site8658],6.66
22,ACCATGATAAATGTATTAAATGTATCATAACCTATG [CACACA_negctrl_site513],6.82
23,ATCCGTGTCTGAAATACACACATGATAATGTGAATG [CACACA_site8210],6.91
24,ATGGAAACAAGCATCACACATATAAATATATATATA [CACACA_site4979],9.04
